Source: publication PMC12136788
Some of the results follow.

T1: UNK ZnF1-3 (human, UniProt Q9C0B0 31-174)
T1 sequence: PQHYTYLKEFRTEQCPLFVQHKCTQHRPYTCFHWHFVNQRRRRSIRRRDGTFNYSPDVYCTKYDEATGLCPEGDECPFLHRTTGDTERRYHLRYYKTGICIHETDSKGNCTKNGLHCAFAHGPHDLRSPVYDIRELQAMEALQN

B1: chr7:125879632:125879633:+_ENSMUSG00000033904_ENSMUST00000106557|mus_mus|FALSE|FALSE (ssRNA)
RNA: GGGAGUUCUACAGUCCGACGAUCUAUUACUAUGUUCUCUGAGAUCCGGAUUGCUUAUUAAAUAGCCCUUUAUUCUCUCCUAUGUAAAGCAUGCUAGAAAAAGAAGACUGAAAAAACAAACAAUAUAGACUAACUAGAACUAGCCAACAGAGGAUUGAGCAUCA
B2: chr10:33190432:33190433:-_ENSG00000150093_ENST00000302278|hu_mus|hu_hu_hu_mus_True|1_8 (ssRNA)
RNA: GGGAGUUCUACAGUCCGACGAUCUACAUUUUCCAAACCUGCAUGUGAAUAAAACCCUGGCCACAGAGCCCCAAAACUACCCUACUGUGACUAAGAUGCUGCUGCUGUGAGCUUGGUGUUGCAAAAUUUUGCACGGGCAGUACUCAACAGAGGAUUGAGCAUCA
B3: chr4:128995729:128995730:-_ENSMUSG00000057236_ENSMUST00000102598|mus_hu|motif|central (ssRNA)
RNA: GGGAGUUCUACAGUCCGACGAUCCUCUCCAAUUUUACUUAAAUCCCAGACAUUCAGUCUGCGAUCAGUACCACUGGAAGCGGAAAUAGUCUCAUUGUGAGGUGACCACUGAACCUGGAAUAUUUCAUCCUUAUGUGACUCAAACAACAGAGGAUUGAGCAUCA
B4: 133030908_133036614_852_CDS_ENSMUSG00000028013_ENSMUST00000029644|mouse|control|control (ssRNA)
RNA: GGGAGUUCUACAGUCCGACGAUCAGGGCUAUCGCAGAUGUGCACAUUUACACAACUGAUGGCUCCCUUGUCACACUUCUUCAUAACCAUCUCUUUCCAACGUUCAUGUGCAGAGUUAAUAACGUCGAGGGCGAAAGCCUUGUUCAACAGAGGAUUGAGCAUCA
B5: 90695599_90699647_638_3pUTR_ENSMUSG00000027282_ENSMUST00000136872|mouse|control|control (ssRNA)
RNA: GGGAGUUCUACAGUCCGACGAUCCGAGGAAUGAGACCCGCAAAAAAUCCUACGAUGCCUUCUUCCCGGUAGAUGGUUACUAUGGAGUCACACAGUCCACAGUACUUAGACUCUCUGCCAAUAAACUGUACCAUGGACCUCAGACAACAGAGGAUUGAGCAUCA
B6: chr3:9412954:9412955:+_ENSG00000134077_ENST00000452837|hu_mus|hu_hu_hu_mus_False|28_38 (ssRNA)
RNA: GGGAGUUCUACAGUCCGACGAUCGGUUGAUAUCUCUUCUUUGAUGGCUGGAUUUUCAUAAUAGUCCAAGAUAUGUGAAUCUGAAGUGCUGCUGGCAAACUCUUUUUUAACAUUUCUCUCAUCUGCUUUGUCUCCUUGUCCACACAACAGAGGAUUGAGCAUCA
B7: chr11:74490848:74490849:-_ENSMUSG00000020745_ENSMUST00000021091|mus_mus|motif|central (ssRNA)
RNA: GGGAGUUCUACAGUCCGACGAUCACAGAUAGCAGGAAGAAAAACAGUAAUUAAUAAUCCAACAUAAAAUGACACUGUCAACGGUUCAGUUUAGUGCCCUAGUUCAAUUUAUUUAACUUCUGCCCUUGUAGGCCUGGUGUGACCCAACAGAGGAUUGAGCAUCA
B8: chr9:31209820:31209821:+_ENSMUSG00000042185_ENSMUST00000086167|mus_mus|motif|central (ssRNA)
RNA: GGGAGUUCUACAGUCCGACGAUCAUUUUCCUUACAGAAGGCCUGGUCUUUGGUUUCCAGCCACAGGUGGAAGAGAGCAGCGGAUUCCUUUUCAUUAUCUUGAGAUUGACCAAGCAAUUUCCACUGCUGGGUUUUCUCUUUGAACAACAGAGGAUUGAGCAUCA
B9: 91020203_91021877_1494_CDS_ENSMUSG00000030091_ENSMUST00000032179|mouse|control|control (ssRNA)
RNA: GGGAGUUCUACAGUCCGACGAUCCAUGACCCCCUUGACGGUGACUGUGGCAACCAUGGAGCUUGACGAAGACCAGCUGAAGUUCCCACUGCCCCCAUGGGCCUUUAUGGUAUACUGAUAGGCGCCUGUCUUUGGUUGCCAUGGCAACAGAGGAUUGAGCAUCA
B10: chr4:128986876:128986877:-_ENSMUSG00000057236_ENSMUST00000102598|mus_hu|motif|central (ssRNA)
RNA: GGGAGUUCUACAGUCCGACGAUCCUGCUGGUGAAACAGGUCACCCAAAAUGGAGAUGGCAUCAAACUAGUGGUCAAGGACGGACUCCAUUUGCCACACUUGCAUGAUAUUGUCUUCUGAUACAGAACAAAUCACCCAAGGUUCCAACAGAGGAUUGAGCAUCA
B11: chr2:198367945:198367946:+_ENSG00000115541_ENST00000409468|hu_hu|FALSE|FALSE (ssRNA)
RNA: GGGAGUUCUACAGUCCGACGAUCGCCAUUUCAAUAGUGACUUAUUUCAGUCUACGUACUUUCCAAGAAUGUCACCAUCUCUAAAUAGGAAAUAAUCCUGCAAGUGAAAAAAACCAUUAGUUAAGACAACUAAUUGCAAAUAUCCAACAGAGGAUUGAGCAUCA
B12: chr16:94645698:94645699:+_ENSMUSG00000040785_ENSMUST00000117648|mus_hu|FALSE|FALSE (ssRNA)
RNA: GGGAGUUCUACAGUCCGACGAUCAUAUCCAUGGCACUUCUGAUAGCAACAAAUGGCAUCUGGCACUGGAGGGAACUUGCAUUCUUCAACAAAUUUCUCUAACAGCAUCUUUAUUUUUUGUGGCUGAGACUCUUCAAUAAUCACCAACAGAGGAUUGAGCAUCA
B13: chr5:146773622:146773623:-_ENSG00000113657_ENST00000343218|hu_mus|FALSE|FALSE (ssRNA)
RNA: GGGAGUUCUACAGUCCGACGAUCUCUUGCUUCUGCCUCCCUCUUUGGGAGGGCUUAACUCAGGGAUGUGAUGUUAGAACGGCCUCCAGGGGGUGCCACAAUGCGUUUGCUAGCUGAGCGGACACCCUCAUCCACUUGGGUGCCCAACAGAGGAUUGAGCAUCA
B14: chr17:88987509:88987510:+_ENSMUSG00000034709_ENSMUST00000038551|mus_hu|FALSE|FALSE (ssRNA)
RNA: GGGAGUUCUACAGUCCGACGAUCAAGAGAGAGAGAGAGAGAGAGAGAGAGAGAGAAAUAUGAACAAAUCUUUUAAAAAGAAUCUGGAGAAUGCCUUCAACUAUAAUAAGAAGUAAUGACAGUUUGACAAUUUAAGCAUUUUUUCAACAGAGGAUUGAGCAUCA

What follows are binders tested against T1, UNK ZnF1-3 (assay: nsRBNS (natural sequence RNA bind-n-seq); RBNS binding buffer (assumed for nsRBNS): 25 mM Tris pH 7.5, 150 mM KCl, 3 mM MgCl2, 0.01% Triton X-100, 500 ug/ml BSA, 20 U/ml SUPERase-In, 4 C; UNK is unkempt and MSI1 is Musashi-1; names of the RNAs are library labels; protein concentration not given here; high values mean tight binding).

Binder	binding signal
B1	1.25 enrichment R
B2	1.24 enrichment R
B3	0.817 enrichment R
B4	0.736 enrichment R
B5	1.33 enrichment R
B6	0.522 enrichment R
B7	1.31 enrichment R
B8	0.429 enrichment R
B9	0.642 enrichment R
B10	1.23 enrichment R
B11	0.825 enrichment R
B12	1.61 enrichment R
B13	0.61 enrichment R
B14	1.67 enrichment R
